# Test results published in publication PMC13458699.
# Chains of the proteins cited; added tags and fusions are not shown.
# UniProt Q6P3S6: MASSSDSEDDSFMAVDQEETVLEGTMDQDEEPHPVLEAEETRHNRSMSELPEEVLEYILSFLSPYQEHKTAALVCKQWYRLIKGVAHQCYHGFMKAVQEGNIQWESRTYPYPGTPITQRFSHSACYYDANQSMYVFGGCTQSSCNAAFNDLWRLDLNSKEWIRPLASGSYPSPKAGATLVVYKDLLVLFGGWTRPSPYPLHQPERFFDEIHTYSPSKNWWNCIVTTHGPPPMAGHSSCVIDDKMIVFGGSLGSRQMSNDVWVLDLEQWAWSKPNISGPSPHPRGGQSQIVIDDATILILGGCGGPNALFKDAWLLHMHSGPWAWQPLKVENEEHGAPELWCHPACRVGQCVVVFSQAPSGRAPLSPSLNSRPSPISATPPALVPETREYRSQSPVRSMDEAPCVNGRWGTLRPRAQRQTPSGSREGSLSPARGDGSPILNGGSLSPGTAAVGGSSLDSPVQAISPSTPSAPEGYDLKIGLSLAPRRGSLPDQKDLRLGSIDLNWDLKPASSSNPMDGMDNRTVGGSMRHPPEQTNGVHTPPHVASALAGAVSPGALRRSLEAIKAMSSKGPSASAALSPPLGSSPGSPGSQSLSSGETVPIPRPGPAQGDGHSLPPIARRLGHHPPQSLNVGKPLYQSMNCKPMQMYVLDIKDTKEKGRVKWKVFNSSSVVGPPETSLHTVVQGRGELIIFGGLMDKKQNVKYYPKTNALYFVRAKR
# Where a chain is given by its changes, count along the chain named. No constants are given. Whether binding was seen depends on the method and setting. Binding seen in cells or lysates may run through a third protein. Some binding calls cover weakened binding; strength is not graded here. Where a sequence is shown, tags or fusion partners need not be part of it.
# T1: PPP4C-V5 (UniProt P60510)
# T1 sequence: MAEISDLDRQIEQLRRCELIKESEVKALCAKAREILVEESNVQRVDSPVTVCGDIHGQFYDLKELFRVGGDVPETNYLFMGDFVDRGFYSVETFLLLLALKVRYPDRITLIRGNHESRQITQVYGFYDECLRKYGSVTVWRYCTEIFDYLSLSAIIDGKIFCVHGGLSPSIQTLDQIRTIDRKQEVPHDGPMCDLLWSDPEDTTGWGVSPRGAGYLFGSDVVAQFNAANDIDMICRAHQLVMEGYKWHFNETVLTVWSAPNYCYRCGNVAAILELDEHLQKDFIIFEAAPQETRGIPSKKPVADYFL
# T2: 3xFLAG-His tagged CCDC6, wild type (UniProt Q16204)
# T2 sequence: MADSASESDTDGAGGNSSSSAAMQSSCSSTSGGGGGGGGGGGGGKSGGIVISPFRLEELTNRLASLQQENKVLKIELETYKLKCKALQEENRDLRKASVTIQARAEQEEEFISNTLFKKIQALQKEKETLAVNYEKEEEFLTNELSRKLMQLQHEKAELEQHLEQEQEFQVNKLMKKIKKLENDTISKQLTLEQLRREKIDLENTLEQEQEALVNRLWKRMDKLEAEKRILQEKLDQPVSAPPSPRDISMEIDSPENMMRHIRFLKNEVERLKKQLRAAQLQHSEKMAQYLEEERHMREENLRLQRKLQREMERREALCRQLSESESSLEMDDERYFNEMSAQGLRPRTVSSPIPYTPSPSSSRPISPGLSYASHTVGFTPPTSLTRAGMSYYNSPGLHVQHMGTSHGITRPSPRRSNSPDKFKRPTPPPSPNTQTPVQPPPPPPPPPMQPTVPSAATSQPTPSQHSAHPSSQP
# T3: 3xFLAG-His tagged CCDC6 “All A” variant (UniProt Q16204)
# T3 sequence: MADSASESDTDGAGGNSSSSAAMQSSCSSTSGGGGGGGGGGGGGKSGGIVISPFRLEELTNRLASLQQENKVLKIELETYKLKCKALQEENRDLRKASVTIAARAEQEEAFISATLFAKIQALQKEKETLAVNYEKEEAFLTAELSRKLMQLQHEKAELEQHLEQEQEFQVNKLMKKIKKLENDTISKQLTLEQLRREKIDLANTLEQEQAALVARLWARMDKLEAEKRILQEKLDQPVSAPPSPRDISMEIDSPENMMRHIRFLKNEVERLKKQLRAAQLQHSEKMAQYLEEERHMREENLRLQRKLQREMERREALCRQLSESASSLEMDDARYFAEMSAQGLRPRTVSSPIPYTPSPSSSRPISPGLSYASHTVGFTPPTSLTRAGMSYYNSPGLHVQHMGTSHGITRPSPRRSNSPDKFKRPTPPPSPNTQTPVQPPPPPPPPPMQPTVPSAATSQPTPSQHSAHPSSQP
# T4: 3xFLAG-His tagged CCDC6 “1A” variant (UniProt Q16204)
# T4 sequence: T2 sequence with N114A, N143A, N215A, N338A
# T5: 3xFLAG-His tagged CCDC6 F423A (UniProt Q16204)
# T5 sequence: T2 sequence with F423A
# T6: 3xFLAG-His tagged CCDC6, wild type, Q16204
# T6 chain: T2 sequence
# B1: PPP4C (endogenous, RPE1 cells) (protein, UniProt P60510 1-307)
# chain: T1 sequence
# B2: PPP4R1 (endogenous, RPE1 cells) (protein, UniProt Q8TF05 1-950)
# chain: MADLSLLQEDLQEDADGFGVDDYSSESDVIIIPSALDFVSQDEMLTPLGRLDKYAASENIFNRQMVARSLLDTLREVCDDERDCIAVLERISRLADDSEPTVRAELMEQVPHIALFCQENRPSIPYAFSKFLLPIVVRYLADQNNQVRKTSQAALLALLEQELIERFDVETKVCPVLIELTAPDSNDDVKTEAVAIMCKMAPMVGKDITERLILPRFCEMCCDCRMFHVRKVCAANFGDICSVVGQQATEEMLLPRFFQLCSDNVWGVRKACAECFMAVSCATCQEIRRTKLSALFINLISDPSRWVRQAAFQSLGPFISTFANPSSSGQYFKEESKSSEEMSVENKNRTRDQEAPEDVQVRPEDTPSDLSVSNSSVILENTMEDHAAEASGKPLGEISVPLDSSLLCTLSSESHQEAASNENDKKPGNYKSMLRPEVGTTSQDSALLDQELYNSFHFWRTPLPEIDLDIELEQNSGGKPSPEGPEEESEGPVPSSPNITMATRKELEEMIENLEPHIDDPDVKAQVEVLSAALRASSLDAHEETISIEKRSDLQDELDINELPNCKINQEDSVPLISDAVENMDSTLHYIHSDSDLSNNSSFSPDEERRTKVQDVVPQALLDQYLSMTDPSRAQTVDTEIAKHCAYSLPGVALTLGRQNWHCLRETYETLASDMQWKVRRTLAFSIHELAVILGDQLTAADLVPIFNGFLKDLDEVRIGVLKHLHDFLKLLHIDKRREYLYQLQEFLVTDNSRNWRFRAELAEQLILLLELYSPRDVYDYLRPIALNLCADKVSSVRWISYKLVSEMVKKLHAATPPTFGVDLINELVENFGRCPKWSGRQAFVFVCQTVIEDDCLPMDQFAVHLMPHLLTLANDRVPNVRVLLAKTLRQTLLEKDYFLASASCHQEAVEQTIMALQMDRDSDVKYFASIHPASTKISEDAMSTASSTY
# B3: CCDC6-6xHis (protein, UniProt Q16204 1-474)
# chain: T2 sequence
# B4: PPP4R2 (endogenous, RPE1 cells) (protein, UniProt Q9NY27 1-417)
# chain: MDVERLQEALKDFEKRGKKEVCPVLDQFLCHVAKTGETMIQWSQFKGYFIFKLEKVMDDFRTSAPEPRGPPNPNVEYIPFDEMKERILKIVTGFNGIPFTIQRLCELLTDPRRNYTGTDKFLRGVEKNVMVVSCVYPSSEKNNSNSLNRMNGVMFPGNSPSYTERSNINGPGTPRPLNRPKVSLSAPMTTNGLPESTDSKEANLQQNEEKNHSDSSTSESEVSSVSPLKNKHPDEDAVEAEGHEVKRLRFDKEGEVRETASQTTSSEISSVMVGETEASSSSQDKDKDSRCTRQHCTEEDEEEDEEEEEESFMTSREMIPERKNQEKESDDALTVNEETSEENNQMEESDVSQAEKDLLHSEGSENEGPVSSSSSDCRETEELVGSNSSKTGEILSESSMENDDEATEVTDEPMEQD
# B5: PPP4R3A (endogenous, RPE1 cells), Q6IN85 1-833 (protein)
# chain: MTDTRRRVKVYTLNEDRQWDDRGTGHVSSGYVERLKGMSLLVRAESDGSLLLESKINPNTAYQKQQDTLIVWSEAENYDLALSFQEKAGCDEIWEKICQVQGKDPSVDITQDLVDESEEERFDDMSSPGLELPSCELSRLEEIAELVASSLPSPLRREKLALALENEGYIKKLLELFHVCEDLENIEGLHHLYEIIKGIFLLNRTALFEVMFSEECIMDVIGCLEYDPALSQPRKHREFLTKTAKFKEVIPISDPELKQKIHQTYRVQYIQDMVLPTPSVFEENMLSTLHSFIFFNKVEIVGMLQEDEKFLTDLFAQLTDEATDEEKRQELVNFLKEFCAFSQTLQPQNRDAFFKTLSNMGILPALEVILGMDDTQVRSAATDIFSYLVEYNPSMVREFVMQEAQQNDDVSKKLTEQKITSKDILLINLIIEHMICDTDPELGGAVQLMGLLRTLVDPENMLATANKTEKTEFLGFFYKHCMHVLTAPLLANTTEDKPSKDDFQTAQLLALVLELLTFCVEHHTYHIKNYIINKDILRRVLVLMASKHAFLALCALRFKRKIIGLKDEFYNRYIMKSFLFEPVVKAFLNNGSRYNLMNSAIIEMFEFIRVEDIKSLTAHVIENYWKALEDVDYVQTFKGLKLRFEQQRERQDNPKLDSMRSILRNHRYRRDARTLEDEEEMWFNTDEDDMEDGEAVVSPSDKTKNDDDIMDPISKFMERKKLKESEEKEVLLKTNLSGRQSPSFKLSLSSGTKTNLTSQSSTTNLPGSPGSPGSPGSPGSPGSVPKNTSQTAAITTKGGLVGLVDYPDDDEDDDEDEDKEDTLPLSKKAKFDS
# Tests used:
# PPP4C-V5 = target: T1, PPP4C-V5; test: co-IP; IP with a V5 antibody from lysates of RPE1 cells expressing PPP4C-V5, FBXO42-Myc and CCDC6-6xHis; WT, FBXO42-/- and CCDC6-/- cells; western blot
# [1] = target: T2, 3xFLAG-His tagged CCDC6, wild type; test: co-IP; IP with anti-FLAG antibody crosslinked to beads from lysates of CCDC6 knock-out RPE1 cells with doxycycline-induced (2 ug/ml) 3xFLAG-His CCDC6 constructs; PP4 subunits endogenous; western blot
# [2] = target: T3, 3xFLAG-His tagged CCDC6 “All A” variant; test: as above
# [3] = target: T4, 3xFLAG-His tagged CCDC6 “1A” variant; test: as above
# [4] = target: T5, 3xFLAG-His tagged CCDC6 F423A; test: as above
# [5] = target: T6, 3xFLAG-His tagged CCDC6, wild type, …; test: as above; details: remark: other sources report otherwise
molecule,measurement,setting,value
FBXO42-Myc (from UniProt Q6P3S6 1-717),binding,PPP4C-V5,binds
"PPP4R3B (endogenous, RPE1 cells) (from UniProt Q5MIZ7 1-849)",binding,[1],no binding
B1,binding,[2],no binding
same,binding,[1],binds
same,binding,[3],no binding
same,binding,[4],binds
B2,binding,[2],no binding
same,binding,[1],binds
same,binding,[3],no binding
same,binding,[4],binds
B3,binding,PPP4C-V5,binds
B4,binding,[1],no binding
B5,binding,[5],no binding
